Source: PMC4336329 (PLoS ONE, 2015)
In all, about 310,000 compounds went through this assay and about 2,200 (0.71%) showed an effect of 50% or more. The effect is printed as a negative number. Some of the results follow.

These molecules were tested against human ether-à-go-go-related gene (hERG) potassium channel (human, UniProt Q12809) (assay: primary screen, population patch clamp on CHO cells stably expressing hERG).
Sequence of human ether-à-go-go-related gene (hERG) potassium channel (Q12809 whole entry, looked up): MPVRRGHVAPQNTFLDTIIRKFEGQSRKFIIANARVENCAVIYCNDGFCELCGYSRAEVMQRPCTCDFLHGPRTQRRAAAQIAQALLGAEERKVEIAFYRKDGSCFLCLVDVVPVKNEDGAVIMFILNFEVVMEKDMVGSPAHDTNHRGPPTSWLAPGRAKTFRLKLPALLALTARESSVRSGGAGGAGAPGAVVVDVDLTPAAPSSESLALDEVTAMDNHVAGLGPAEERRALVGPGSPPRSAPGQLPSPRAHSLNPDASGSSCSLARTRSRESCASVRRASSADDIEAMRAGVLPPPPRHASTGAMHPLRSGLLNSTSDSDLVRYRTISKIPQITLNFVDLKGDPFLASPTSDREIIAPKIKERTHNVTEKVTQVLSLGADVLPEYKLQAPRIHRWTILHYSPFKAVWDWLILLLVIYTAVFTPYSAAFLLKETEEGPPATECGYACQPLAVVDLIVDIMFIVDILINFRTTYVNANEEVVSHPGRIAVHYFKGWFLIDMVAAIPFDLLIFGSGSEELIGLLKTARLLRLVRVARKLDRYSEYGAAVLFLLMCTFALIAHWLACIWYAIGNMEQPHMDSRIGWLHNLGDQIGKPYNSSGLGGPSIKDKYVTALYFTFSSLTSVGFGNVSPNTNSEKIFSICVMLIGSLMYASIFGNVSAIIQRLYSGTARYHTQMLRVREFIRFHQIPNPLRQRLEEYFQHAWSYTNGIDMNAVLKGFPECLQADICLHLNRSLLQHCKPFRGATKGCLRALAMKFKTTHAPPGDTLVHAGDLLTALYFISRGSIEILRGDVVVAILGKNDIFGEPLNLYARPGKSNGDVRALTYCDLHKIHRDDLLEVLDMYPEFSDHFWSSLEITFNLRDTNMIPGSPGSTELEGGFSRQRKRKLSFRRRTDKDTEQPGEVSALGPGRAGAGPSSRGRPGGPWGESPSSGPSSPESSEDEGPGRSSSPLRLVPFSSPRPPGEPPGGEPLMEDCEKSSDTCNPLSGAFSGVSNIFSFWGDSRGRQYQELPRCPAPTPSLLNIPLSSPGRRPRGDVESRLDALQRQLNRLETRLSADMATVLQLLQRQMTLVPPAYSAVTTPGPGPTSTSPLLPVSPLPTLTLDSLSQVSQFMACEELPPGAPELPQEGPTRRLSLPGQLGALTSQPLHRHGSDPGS

Structure (SMILES) | hERG current change (%, negative = inhibition) at 1uM [%]
CCCCN(C(=O)c1ccc2c(c1)OCO2)C1CCS(=O)(=O)C1 (centres unmarked) | 9.3
CC(C)(C)OC(=O)[C@H](NC(=O)OCc1ccccc1)c1ccccc1 | 3.44
CCOc1ccc(CCNC(=O)C2CCN(S(=O)(=O)CC)CC2)cc1OCC | 0.674
CCC(Sc1nc2ccccc2o1)C(=O)O (centres unmarked) | 5.72
Cc1cc(NS(=O)(=O)c2ccc(NC(=O)c3ccc(Cl)cc3Cl)cc2)no1 | 13.6
O=C(NN1C(=O)C2C3C=CC(C4CC34)C2C1=O)c1ccc(Cl)c(Cl)c1 (centres unmarked) | 16.2
CC(NS(=O)(=O)c1ccc(Cl)cc1)C(c1cccs1)N1CCN(C)CC1 (centres unmarked) | -4.72
CC(C)CN(C(=O)CSc1nnnn1-c1ccccc1)c1c(N)n(CC(C)C)c(=O)[nH]c1=O | 8.73
Cc1cc(S(=O)(=O)NC2CCCCC2)ccc1-n1cnnn1 | 10.4
COc1ccc(C(=O)N/C(=C\c2cn(C)c3ccccc23)C(=O)N2CCOCC2)cc1 | -7.16
O=C(NNS(=O)(=O)c1ccc(Cl)cc1Cl)c1cc2ncc(C(F)(F)F)cc2s1 | 23.4
Oc1ccc(N=Nc2n[nH]c(-c3ccc(Cl)cc3)n2)cc1 | 8.39
COc1ccc(C2C=C(c3ccccc3)Nc3nc(NC(C)=O)nn32)cc1 (centres unmarked) | 7.65
COc1cc(/C=C/C(=O)OCC(=O)Nc2cc(C(F)(F)F)ccc2N2CCOCC2)ccc1O | 4.12
Nc1nc(CSC(=S)N2CCN(c3ccccc3)CC2)nc(Nc2ccccc2)n1 | 8.61
COc1ccc(CCn2c(=O)[nH]c3cc(C(=O)NCCN4CCOCC4)ccc3c2=O)cc1OC | 8.23
Cc1ccc(NC(=O)C(=O)NCCN2CCN(Cc3ccc([N+](=O)[O-])cc3)CC2)cc1 | -53.3
COC(=O)/C(=C\c1ccc([N+](=O)[O-])o1)NC(=O)c1ccccc1 | -2.26
C[N+]1(CCCCSc2ccc(O)cc2)CCCCC1.[I-] | -5.92
O=C(NCC1CCCO1)/C(=C/c1ccc(Cl)cc1)NC(=O)c1ccccc1 (centres unmarked) | 3.15
Cc1ccc(-c2c(NCCc3ccccc3)c(=O)c2=O)cc1 | 16
Cc1ccc2cc3cc(C(=O)NCCCN4CCCC4)oc3nc2c1 | 20.6

Structure (SMILES) | hERG current change (%, negative = inhibition) at 1uM [%]
CCOC(=O)COc1nc(C)cc(C(F)(F)F)c1C#N | 7.77
O=C(Nc1ccccc1)N1CCN(Cc2ccccc2)CC1.O=C(O)C(=O)O | 10.9
CC1=C(C(=O)NC2CCCc3c2cnn3-c2cc(F)cc(F)c2)OCCO1 (centres unmarked) | -1.27
Cn1nnnc1SCc1nnc(-c2ccc(Cl)cc2)o1 | 10.3
C[C@H]1C/C=C/[C@H]2[C@H](O)[C@H](C)[C@@](C)(O)[C@H]3[C@H](Cc4ccccc4)NC(=O)[C@]32[C@H](O)/C=C/[C@](C)(O)C1 | 17.4
Cc1ccc(C(C)C)c(OCCSc2nc3ccccc3n2CC(=O)O)c1 | 10.1
COc1ccc(F)cc1C(=O)C1CCCN(C(=O)c2ocnc2C)C1 (centres unmarked) | -0.32
O=C(N/N=C/c1ccc([N+](=O)[O-])o1)C1CC1 | 15.1
Cc1cc(O)c(Oc2cc(C)cc(O)c2O)c(O)c1 | 16.4
CCC(=O)Nc1nnc(SCc2ccc(F)cc2)s1 | 5.36
O=C(CNC(=O)C1COc2ccccc2O1)N/N=C/c1ccc(O)cc1O (centres unmarked) | -0.349
C/C(=N\NC(=O)c1nc2ccccn2c1C)c1ccco1 | 3.86
Cc1[nH]c2ccccc2c1C(=O)CSc1nc2cc(S(=O)(=O)N3CCCCC3)ccc2o1 | 9.62
CC1CN(C(=O)c2cc(S(=O)(=O)N(C)c3ccc(F)cc3)ccc2Cl)CC(C)O1 (centres unmarked) | 11.4
COc1ccc2c(c1)C(=O)N(c1ccccc1OC)C(=O)C2(C)C | -1.44
Cc1cc2sc(C(=O)O)c(C)c2s1 | 4.13
Cn1c(=O)cc(SCC(=O)NCc2ccco2)c2ccccc21 | 10.3
CN(NS(=O)(=O)c1ccc(Br)cc1)c1nc(C(F)(F)F)nc2ccccc12 | 11.6
CS(=O)(=O)N(CC(=O)NCCSc1ccccc1)c1ccc2c(c1)OCO2 | 5.78
NS(=O)(=O)c1ccc(N/C=C\C(=O)c2ccc3ccccc3c2)cc1 | 9.29
CC(OCC(O)CN(C)CCOc1ccccc1)c1ccc(Cl)cc1 (centres unmarked) | 2.33
CCCCC(NS(=O)(=O)c1ccc(C)cc1)C(=O)Oc1ccc2c3c(c(=O)oc2c1)CCC3 (centres unmarked) | 8.58

Structure (SMILES) | hERG current change (%, negative = inhibition) at 1uM [%]
Cl.Nc1cccc2c(O)cccc12 | 9.58
C=CCn1c(SCC(=O)c2cc(C)n(Cc3cccs3)c2C)nnc1-c1ccncc1 | 5.07
O=C(Nc1cc([N+](=O)[O-])ccc1Cl)c1cccnc1 | 15.3
CCCN(C(=O)COC(=O)CSc1ccc([N+](=O)[O-])cc1)C1CCS(=O)(=O)C1 (centres unmarked) | 5.95
CC(=O)Nc1sc(C)c(C)c1CN1CCN(Cc2ccccc2)CC1 | 3.28
CCCOc1ccc(C2c3c(oc4ccccc4c3=O)C(=O)N2CCN(CC)CC)cc1OC (centres unmarked) | -5.51
Cc1c(C(=O)N2CCCCC2)nn(-c2ccc(Cl)cc2)c(=O)c1C#N | 3.42
CC(=O)c1ccc(NC(=O)N2CCCC(C(=O)c3ccc4c(c3)OCO4)C2)cc1 (centres unmarked) | 9.05
CCCN1CC(=O)N2C(c3cccc(OC)c3OC)c3[nH]c4ccccc4c3C[C@H]2C1=O (some centres unmarked) | 14.2
Cc1nn(Cc2ccc(Cl)c(Cl)c2)c(C)c1NC(=O)c1noc2c1CCCCC2 | -2.73
COc1cccc(CN(C)C(=O)CN2C(=O)NC(c3ccccc3)(c3ccccc3)C2=O)c1 | -1.29
CCC(=O)NC(c1ccccc1)c1nc2ccccc2[nH]1 (centres unmarked) | 20.8
CCNc1nc(NC(C)C)nc(Oc2ccc(=O)n(C)n2)n1 | 17.2
CC(=O)Nc1ccc(NC(=O)C(C)OC(=O)c2ccc(-n3cnnn3)cc2)cc1 (centres unmarked) | 10.1
CC(C)[C@@H](C(=O)N[C@@H](Cc1ccccc1)C(=O)O)N1C(=O)N2CCc3c([nH]c4ccccc34)[C@@]2(C)C1=O | 9.64
Cc1ccc(CNS(=O)(=O)c2c(C)[nH]c(=O)[nH]c2=O)cc1 | 5.94
O=c1c2c(nc3c(-c4ccccc4)c[nH]n13)CCC2 | 21.1
C=CCn1c(O)c(N=NC(=O)CNC(=O)c2ccncc2)c2ccccc21 | 11.7
Cc1ccccc1N(CC(N)=O)S(C)(=O)=O | 9.32
Cc1cc2c(cc1C)NC(CC(=O)NCc1ccccc1)C(=O)N2 (centres unmarked) | 4.14
CCOc1ccc2c(c1)-c1c(ssc1=S)C(C)(C)N2 | 9.76
CC(C)(Oc1ccc(Cl)cc1)C(=O)NC1CCSC1=O (centres unmarked) | -1.99

Structure (SMILES) | hERG current change (%, negative = inhibition) at 1uM [%]
O=C(/C=C/c1ccc(Cl)c(Cl)c1)NCc1ccco1 | -0.137
Cc1ccc(NCc2nnc(SCC(=O)N(Cc3ccccc3)C(C)(C)C)o2)c(C)c1 | -6.21
CCOC(=O)Cn1c(=O)oc2cc(S(=O)(=O)Nc3ccc(F)cc3)ccc21 | 0.832
CCN1CCN(CC(=O)Nc2cc(C(F)(F)F)ccc2OCCOC)CC1.O=C(O)C(=O)O | -70.9
Cc1ccc2[nH]c(=O)c(CN(CC3CCCO3)C(=S)NCc3ccco3)cc2c1 (centres unmarked) | 4.46
Cc1ccccc1NC(=O)c1ccc(-c2ccc(Cl)cc2Cl)o1 | -3.94
CC(C)n1cc(-c2ccc(Cl)cc2)cc(C#N)c1=O | 8.34
CCN(CC)C(=O)c1cnn(-c2ccccc2)c1NC(=O)c1ccccc1F | 3.89
CC(=O)N1CCC(N(CCN2CCOCC2)C(=S)Nc2cccc(C)c2)CC1 | 17
C=CCN(c1ccccc1)S(=O)(=O)c1ccc2c(c1)N(C(C)=O)CCO2 | 6.08
COc1cc(CNC(=O)c2nc(Cn3nc(C)c(Br)c3C)no2)cc(OC)c1 | -10.7
Cc1ccc(C(=O)Nc2ccsc2C(=O)O)cc1 | 16
CCOc1ccc2cc(S(=O)(=O)N3CCOCC3)ccc2c1 | 13.2
COc1ccc(C(C)=O)cc1COC(=O)Cn1cnc2ccccc2c1=O | 10.8
O=C(Cn1nnc2c(cnn2-c2ccccc2)c1=O)NCc1cccs1 | 11.7
CCOC(=O)c1c(N)sc(-c2ccccc2)c1C | 7.41
Cc1ccc(NC(=O)CNc2cc(S(=O)(=O)N3CCOCC3)ccc2NCC2CCCO2)cc1F (centres unmarked) | 15.1
CCCC(=O)N1CC(=O)Nc2ccc(C)cc2C1c1ccc(F)cc1 (centres unmarked) | 2.3
Cc1nn(-c2ccccc2)c(/N=C/c2ccc(O)cc2)c1-c1ccccc1 | 2.85
C=CCn1cc(-c2ccccc2)cc(C#N)c1=O | 17.1
